# Measured values: the supplement of paper PMC9433436
# ± gives the standard deviation of the averaged measurements. Over roughly 4,100 sequences, “relative kcat/Km (krel) vs genomic leader AAAGAU” has its median near 1.7; the highest 2% begin near 6.5. This is a selection; strong and weak results do not stand in their true shares.
# Target: T1, E. coli RNase P holoenzyme (M1 P RNA + rnpA protein) (UniProt P0A7Y8)
# T1 sequence: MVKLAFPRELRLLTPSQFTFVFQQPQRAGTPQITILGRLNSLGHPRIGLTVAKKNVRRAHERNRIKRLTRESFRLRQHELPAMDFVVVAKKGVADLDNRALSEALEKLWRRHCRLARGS
# Assay: relative kcat/Km (krel) vs genomic leader AAAGAU (relative (reference leader = 1)); higher = faster RNase P cleavage
# Method: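 HTS-Kin: a pool of ptRNA-Met (21C construct) with all 4096 combinations of 5' leader nucleotides N(-6) to N(-1) was processed in vitro by E. coli RNase P (P RNA + rnpA/C5 protein) under multiple-turnover conditions at 37 C, pH 8, 17.5 mM MgCl2. Residual substrate was Illumina-sequenced at several fractions reacted, and relative kcat/Km (krel) was computed by internal competition kinetics, calibrated to the genomic leader (AAAGAU = 1). The listed hexamer is the varied N(-6)..N(-1) leader (DNA letters), and it sits between a fixed 5' stem-loop flank (GCAUGCACGAAAGUGCGUGCUAUGAA) and the mature tRNA-Met starting GGCUACGUAGCUCAGUUGG. Two technical replicates are averaged.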
# [1] = fraction of substrate reacted: ~9-10% (9.79% repeat 1, 9.1% repeat 2)
# [2] = fraction of substrate reacted: ~13-16% (15.68% repeat 1, 13.17% repeat 2)
# [3] = fraction of substrate reacted: ~26-29% (28.66% repeat 1, 26.4% repeat 2)
Sequence,relative kcat/Km [1],relative kcat/Km [2],relative kcat/Km [3]
AGCAAA,2.66 ± 1.7,2.77 ± 0.46,3.99 ± 1.2
TCCTGT,–,–,2.18 ± 1.6
GTTGTA,1.0952 ± 0.00012,0.821 ± 0.1,1.42 ± 0.54
TGTGTC,1.59 ± 1.4,1.59 ± 0.53,1.11 ± 0.067
TGGCGA,0.674 ± 0.028,0.957 ± 0.27,1.62 ± 1
AGTACC,1.76 ± 0.33,2.32 ± 0.69,3.17 ± 0.87
CCCCAC,2.35 ± 1.6,2.96 ± 0.19,5.06 ± 1.8
TTGGGT,–,–,1.65 ± 1.2
TACGTC,2.61 ± 0.68,3.76 ± 0.72,4.86 ± 2
TGCCTC,1.86 ± 0.51,2.58 ± 0.92,3.4 ± 1.6
TCGTAG,1.32 ± 0.27,1.93 ± 0.13,3.82 ± 1.3
CGTAAT,1.92 ± 0.64,3.09 ± 0.92,5.4 ± 2.4
GAACCT,1.05 ± 0.64,1.65 ± 1.3,1.84 ± 0.97
GCCAGC,1.77 ± 0.65,2.1 ± 0.77,3.51 ± 0.92
CCAGTA,1.71 ± 0.98,0.789 ± 0.077,1.17 ± 0.046
TAAATA,2.08 ± 1.1,1.83 ± 0.52,2.27 ± 0.69
ACCTAT,3.74 ± 1.7,4.66 ± 0.24,6.39 ± 2.5
TGCACC,1.72 ± 0.76,1.14 ± 0.99,2.13 ± 1.4
TAGAGG,–,0.616 ± 0.31,1.27 ± 0.33
TAACTA,1.23 ± 0.79,–,1.67 ± 0.25
TCTATG,–,2.22 ± 0.12,4.13 ± 1.1
TAAGAT,1.677 ± 0.0069,2.11 ± 0.53,2.51 ± 1.3
CCGAAA,1.99 ± 0.6,1.29 ± 0.33,2.82 ± 0.4
TCAGAA,2.03 ± 0.55,2.39 ± 0.63,3.82 ± 1.2
ATACGG,–,–,0.673 ± 0.33
GCTCAG,–,0.21 ± 0.1,0.872 ± 0.11

Sequence,relative kcat/Km [1],relative kcat/Km [2],relative kcat/Km [3]
GATTGG,–,–,0.409 ± 0.2
CTAGGG,–,–,0.691 ± 0.037
TCACCT,2.64 ± 0.76,1.98 ± 0.59,2.58 ± 0.53
GGCACT,1.99 ± 1.6,1.75 ± 0.28,2.89 ± 1.2
CTCGGG,–,–,0.404 ± 0.11
CAGGTA,1.05 ± 0.58,1.11 ± 1.1,1.08 ± 0.73
GCTCCC,1.35 ± 1,0.482 ± 0.068,1.73 ± 0.085
AAAGTA,1.73 ± 0.85,0.873 ± 0.2,1.23 ± 0.47
GATTTA,1.88 ± 1,2.11 ± 0.066,2.67 ± 0.84
TTCTAG,4.08 ± 2.6,4.58 ± 0.56,7.01 ± 3.1
TCGCTC,3.14 ± 1.1,3.21 ± 1.3,4.37 ± 2.2
GCCCAT,3.07 ± 2.2,3.36 ± 0.14,5.4 ± 1.5
GTCGGT,–,–,2.3 ± 1.4
TTACGT,0.467 ± 0.46,1.73 ± 1.6,–
TTAGCG,–,0.258 ± 0.21,1.18 ± 0.066
AATTAC,3.5 ± 1.7,3.97 ± 0.31,5.32 ± 1.9
GTCATA,4.4 ± 2,4.91 ± 0.65,7.54 ± 3
TTTATA,2.14 ± 0.68,2.64 ± 0.089,3.68 ± 1.5
TTGACT,1.07 ± 0.43,0.843 ± 0.097,1.29 ± 0.095
CGCAGC,1.95 ± 0.49,2.54 ± 0.82,3.89 ± 0.98
GATCTT,1.79 ± 0.87,2.5 ± 0.031,3.1 ± 1.4
GCGGAC,–,0.914 ± 0.43,0.533 ± 0.27
GTCGTC,3.09 ± 1.7,2.79 ± 0.12,4.02 ± 1.6
TGTACA,2.01 ± 0.86,2.29 ± 0.24,3.29 ± 1.4
GCGCCG,–,–,0.778 ± 0.35
GCAAAC,2.18 ± 0.65,1.73 ± 0.082,2.28 ± 0.6
